# Assay results: the supplement of paper PMC8728848
# Some of the results follow.
# B1: Sebin1 (Coprinopsis cinerea), A8PEE3 (protein)
# chain: MTSPFYAHIHNVQDDNTWRFTLIFANRATADEWWRAISEAPANTSIAKSITRVTPQYYTHDVNIWNIWNFFADGNIKSISERFRGRLFIVLENDRGGRGITVIPPVPIVDHVSGNWFYIRSKTAPHLFWYYDERRSSIYASKEKRTRFKISIRNPSSQTPKNAIMINTDDVTIHIKENLYVGVDNNLGHIIPTRAYRTFKFGELESGAIAGFDVVENIEERCSSTFDGASLSISGPDSSSPGEPWELV
# Key:
# Assay in all cases: glycan array binding signal (z-score within array); higher = stronger binding
# Conditions in all cases: glycan notation: IUPAC condensed, linker removed
# [1] = target: Fuc(a1-2)[GalNAc(a1-3)]Gal(b1-3)GlcNAc(b1-3)GalNAc
# Method in brief: (§1)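 Glycan array data were curated from 3228 arrays in the Consortium for Functional Glycomics database and kept only where the protein sequence was available. Glycan names were converted to IUPAC-condensed notation, and columns mapping to the same glycan were averaged. The binding signal is a within-array Z-score, averaged across arrays of the same protein sequence at different concentrations or buffers and across linkers. Negative Z-scores can be read as non-binding.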
# [2] = target: Fuc(a1-2)[GalNAc(a1-3)]Gal(b1-3)GlcNAc(b1-6)GalNAc
# Method in brief: as §1
# [3] = target: Fuc(a1-2)[GalNAc(a1-3)]Gal(b1-4)Glc
# Method in brief: as §1
# [4] = target: Fuc(a1-2)[GalNAc(a1-3)]Gal(b1-4)GlcNAc
# Method in brief: as §1
# [5] = target: Fuc(a1-2)[GalNAc(a1-3)]Gal(b1-4)GlcNAc(b1-2)Man
# Method in brief: as §1
# [6] = target: Fuc(a1-2)[GalNAc(a1-3)]Gal(b1-4)GlcNAc(b1-2)Man(a1-3)[Fuc(a1-2)[GalNAc(a1-3)]Gal(b1-4)GlcNAc(b1-2)Man(a1-6)]Man(b1-4)GlcNAc(b1-4)GlcNAc
# Method in brief: as §1
# [7] = target: Fuc(a1-2)[GalNAc(a1-3)]Gal(b1-4)GlcNAc(b1-2)Man(a1-3)[Fuc(a1-2)[GalNAc(a1-3)]Gal(b1-4)GlcNAc(b1-2)Man(a1-6)]Man(b1-4)GlcNAc(b1-4)[Fuc(a1-6)]GlcNAc
# Method in brief: as §1
# [8] = target: Fuc(a1-2)[GalNAc(a1-3)]Gal(b1-4)GlcNAc(b1-3)Gal(b1-4)GlcNAc
# Method in brief: as §1
# [9] = target: Fuc(a1-2)[GalNAc(a1-3)]Gal(b1-4)GlcNAc(b1-3)Gal(b1-4)GlcNAc(b1-3)Gal(b1-4)GlcNAc
# Method in brief: as §1
# [10] = target: Fuc(a1-2)[GalNAc(a1-3)]Gal(b1-4)GlcNAc(b1-3)GalNAc
# Method in brief: as §1
# [11] = target: Fuc(a1-2)[GalNAc(a1-3)]Gal(b1-4)GlcNAc(b1-3)[Fuc(a1-2)[GalNAc(a1-3)]Gal(b1-4)GlcNAc(b1-6)]GalNAc
# Method in brief: as §1
# [12] = target: Fuc(a1-2)[GalNAc(a1-3)]Gal(b1-4)GlcNAc(b1-6)GalNAc
# Method in brief: as §1
# [13] = target: Fuc(a1-2)[GalNAc(a1-3)]Gal(b1-4)[Fuc(a1-3)]GlcNAc
# Method in brief: as §1
# [14] = target: Fuc(a1-2)[GalNAc(a1-3)]Gal(b1-4)[Fuc(a1-3)]GlcNAc(b1-3)GalNAc
# Method in brief: as §1
# [15] = target: Fuc(a1-2)[GalNAc(a1-4)]Gal(b1-4)GlcNAc
# Method in brief: as §1
# [16] = target: Fuc(a1-2)[GalNAc(b1-3)]Gal
# Method in brief: as §1
# [17] = target: Fuc(a1-3)GlcNAc
# Method in brief: as §1
# [18] = target: Fuc(a1-3)[Gal(b1-4)]Glc6S
# Method in brief: as §1
# [19] = target: Fuc(a1-3)[Gal(b1-4)]GlcNAc
# Method in brief: as §1
# [20] = target: Fuc(a1-3)[Gal(b1-4)]GlcNAc(b1-2)Man
# Method in brief: as §1
# [21] = target: Fuc(a1-3)[Gal(b1-4)]GlcNAc(b1-2)Man(a1-3)[Fuc(a1-3)[Gal(b1-4)]GlcNAc(b1-2)Man(a1-6)]Man(b1-4)GlcNAc(b1-4)GlcNAc
# Method in brief: as §1
# [22] = target: Fuc(a1-3)[Gal(b1-4)]GlcNAc(b1-2)Man(a1-3)[Fuc(a1-3)[Gal(b1-4)]GlcNAc(b1-2)Man(a1-6)]Man(b1-4)GlcNAc(b1-4)[Fuc(a1-6)]GlcNAc
# Method in brief: as §1
# [23] = target: Fuc(a1-3)[Gal(b1-4)]GlcNAc(b1-3)Gal(b1-3)[Fuc(a1-4)]GlcNAc
# Method in brief: as §1
# [24] = target: Fuc(a1-3)[Gal(b1-4)]GlcNAc(b1-3)Gal(b1-4)[Fuc(a1-3)]GlcNAc
# Method in brief: as §1
# [25] = target: Fuc(a1-3)[Gal(b1-4)]GlcNAc(b1-3)Gal(b1-4)[Fuc(a1-3)]GlcNAc(b1-3)Gal(b1-4)[Fuc(a1-3)]GlcNAc
# Method in brief: as §1
# [26] = target: Fuc(a1-3)[Gal(b1-4)]GlcNAc(b1-3)GalNAc
# Method in brief: as §1
# [27] = target: Fuc(a1-3)[Gal(b1-4)]GlcNAc(b1-6)GalNAc
# Method in brief: as §1
# [28] = target: Fuc(a1-3)[Gal(b1-4)]GlcNAc(b1-6)[Gal(b1-3)GlcNAc(b1-3)]Gal(b1-4)Glc
# Method in brief: as §1
# [29] = target: Fuc(a1-3)[Gal(b1-4)]GlcNAc6S
# Method in brief: as §1
# [30] = target: Fuc(a1-3)[Gal3S(b1-4)]Glc
# Method in brief: as §1
# [31] = target: Fuc(a1-3)[Gal3S(b1-4)]GlcNAc
# Method in brief: as §1
# [32] = target: Fuc(a1-3)[Gal3S(b1-4)]GlcNAc6S
# Method in brief: as §1
# [33] = target: Fuc(a1-3)[GalNAc(b1-4)]GlcNAc
# Method in brief: as §1
# [34] = target: Fuc(a1-3)[GalNAc(b1-4)]GlcNAc6S
# Method in brief: as §1
# [35] = target: Fuc(a1-4)GlcNAc
# Method in brief: as §1
# [36] = target: Fuc(b1-3)GlcNAc
# Method in brief: as §1
# [37] = target: Gal(a1-2)Gal
# Method in brief: as §1
binder,measurement,setting,value
B1,glycan array binding signal (z-score),[1],-0.028
same,glycan array binding signal (z-score),[2],-0.225
same,glycan array binding signal (z-score),[3],-0.173
same,glycan array binding signal (z-score),[4],-0.218
same,glycan array binding signal (z-score),[5],0.354
same,glycan array binding signal (z-score),[6],-0.839
same,glycan array binding signal (z-score),[7],0.337
same,glycan array binding signal (z-score),[8],-0.149
same,glycan array binding signal (z-score),[9],-0.669
same,glycan array binding signal (z-score),[10],-0.216
same,glycan array binding signal (z-score),[11],1.28
same,glycan array binding signal (z-score),[12],0.553
same,glycan array binding signal (z-score),[13],0.3
same,glycan array binding signal (z-score),[14],1.34
same,glycan array binding signal (z-score),[15],-0.336
same,glycan array binding signal (z-score),[16],-0.855
same,glycan array binding signal (z-score),[17],-0.584
same,glycan array binding signal (z-score),[18],0.735
same,glycan array binding signal (z-score),[19],-0.24
same,glycan array binding signal (z-score),[20],0.034
same,glycan array binding signal (z-score),[21],-0.621
same,glycan array binding signal (z-score),[22],0.742
same,glycan array binding signal (z-score),[23],0.111
same,glycan array binding signal (z-score),[24],0.429
same,glycan array binding signal (z-score),[25],-0.039
same,glycan array binding signal (z-score),[26],-0.201
same,glycan array binding signal (z-score),[27],-0.288
same,glycan array binding signal (z-score),[28],0.369
same,glycan array binding signal (z-score),[29],-0.173
same,glycan array binding signal (z-score),[30],0.014
same,glycan array binding signal (z-score),[31],-0.316
same,glycan array binding signal (z-score),[32],-0.452
same,glycan array binding signal (z-score),[33],-0.166
same,glycan array binding signal (z-score),[34],-0.132
same,glycan array binding signal (z-score),[35],0.652
same,glycan array binding signal (z-score),[36],-0.215
same,glycan array binding signal (z-score),[37],-0.195
